The test system of the assay is COLO205 cells. The assay is described as follows: COLO205 xenograft tumor model. The format is in vivo, mice. How it is done: Briefly, female hCD16A FOX N1 mice (n=7/group) were implanted subcutaneously (SC) with 5 million COLO205 cells suspended in 200 μL of Ham's F12 medium mixed 1:1 with Matrigel on Day 0. The tumors were measured every 3-4 days with calipers. On Study Day 3, the mice were randomized based on tumor size and treated twice a week (intravenous (IV) injection) with the indicated dose levels of test article or vehicle (sterile saline containing 0.5% bovine serum albumin). Tumor volume was monitored over the course of the study and is plotted in FIG. 21 as a group mean±SEM.

B1: DR5 mAb 1 × DR5 mAb 1 Fc diabody (AA): monospecific tetravalent Fc diabody, L234A/L235A Fc; chains SEQ ID NO:132 and 130 (protein)
chain 1: DIVLTQSPASLAVSLGQRATISCRASKSVSSSGYSYMHWYQQKPGQPPKVLIFLSSNLDSGVPARFSGSGSGTDFTLNIHPVEDGDAATYYCQHSRDLPPTFGGGTKLEIKGGGSGGGGEVKFLESGGGLVQPGGSLKLSCVASGFDFSRYWMSWVRQAPGKGLEWIGEINPDSNTINYTPSLKDKFIISRDNAKNTLYLQMTKVRSEDTALYYCTRRAYYGNPAWFAYWGQGTLVTVSAASTKGEVAACEKEVAALEKEVAALEKEVAALEKL[sequence of human IgG1 Fc with changes omitted]
chain 2: DIVLTQSPASLAVSLGQRATISCRASKSVSSSGYSYMHWYQQKPGQPPKVLIFLSSNLDSGVPARFSGSGSGTDFTLNIHPVEDGDAATYYCQHSRDLPPTFGGGTKLEIKGGGSGGGGEVKFLESGGGLVQPGGSLKLSCVASGFDFSRYWMSWVRQAPGKGLEWIGEINPDSNTINYTPSLKDKFIISRDNAKNTLYLQMTKVRSEDTALYYCTRRAYYGNPAWFAYWGQGTLVTVSAASTKGKVAACKEKVAALKEKVAALKEKVAALKE
modifications: First Polypeptide Chain of an Exemplary DR5 mAb 1 x DR5 mAb 1 Fc diabody L234A/L235A; Second Polypeptide Chain of an Exemplary DR5 mAb 1 x DR5 mAb 1 Fc diabody
On to B1, for which the tumor regression result (0.5 and 0.05 mg/kg treatment groups) was “regress”. Besides, the “tumor growth (tumor volume)” value (IV twice a week, 0.5, 0.05, 0.005 mg/kg) is “dramatically inhibit tumor growth”.
